# Measured values: the supplement of paper PMC8728848
# The list shows a part of the results.
# Key:
# Assay in all cases: glycan array binding signal (z-score within array); higher = stronger binding
# Settings in all cases: glycan notation: IUPAC condensed, linker removed
# [1] = biological target: Gal(b1-4)GlcNAc(b1-2)[Gal(b1-4)GlcNAc(b1-6)]Man(a1-6)[Gal(b1-4)GlcNAc(b1-2)Man(a1-3)]Man(b1-4)GlcNAc(b1-4)[Fuc(a1-6)]GlcNAc
# Procedure, shortened: (§1)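 Arrays were curated from the Consortium for Functional Glycomics database, 3228 in total, and kept only where the protein sequence was available. Binding is expressed as a within-array Z-score. This score was averaged across arrays of the same protein sequence at different concentrations or buffers and across linkers, and negative values can be read as non-binding.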
# [2] = biological target: Gal(b1-4)GlcNAc(b1-2)[Gal(b1-4)GlcNAc(b1-6)]Man(a1-6)[GlcNAc(b1-4)][Gal(b1-4)GlcNAc(b1-2)Man(a1-3)]Man(b1-4)GlcNAc(b1-4)GlcNAc
# Procedure, shortened: as §1
# [3] = biological target: Gal(b1-4)GlcNAc(b1-2)[Gal(b1-4)GlcNAc(b1-6)]Man(a1-6)[GlcNAc(b1-4)][Gal(b1-4)GlcNAc(b1-2)[Gal(b1-4)GlcNAc(b1-4)]Man(a1-3)]Man(b1-4)GlcNAc(b1-4)[Fuc(a1-6)]GlcNAc
# Procedure, shortened: as §1
# [4] = biological target: Gal(b1-4)GlcNAc(b1-3)Gal(b1-3)GalNAc
# Procedure, shortened: as §1
# [5] = biological target: Gal(b1-4)GlcNAc(b1-3)Gal(b1-3)GlcNAc
# Procedure, shortened: as §1
# [6] = biological target: Gal(b1-4)GlcNAc(b1-3)Gal(b1-4)Glc
# Procedure, shortened: as §1
# [7] = biological target: Gal(b1-4)GlcNAc(b1-3)Gal(b1-4)GlcNAc
# Procedure, shortened: as §1
# [8] = biological target: Gal(b1-4)GlcNAc(b1-3)Gal(b1-4)GlcNAc(b1-2)Man(a1-3)[Gal(b1-4)GlcNAc(b1-3)Gal(b1-4)GlcNAc(b1-2)Man(a1-6)]Man(b1-4)GlcNAc(b1-4)GlcNAc
# Procedure, shortened: as §1
# [9] = biological target: Gal(b1-4)GlcNAc(b1-3)Gal(b1-4)GlcNAc(b1-2)Man(a1-3)[Gal(b1-4)GlcNAc(b1-3)Gal(b1-4)GlcNAc(b1-2)Man(a1-6)]Man(b1-4)GlcNAc(b1-4)[Fuc(a1-6)]GlcNAc
# Procedure, shortened: as §1
# [10] = biological target: Gal(b1-4)GlcNAc(b1-3)Gal(b1-4)GlcNAc(b1-2)[Gal(b1-4)GlcNAc(b1-3)Gal(b1-4)GlcNAc(b1-6)]Man(a1-6)[Gal(b1-4)GlcNAc(b1-3)Gal(b1-4)GlcNAc(b1-2)Man(a1-3)]Man(b1-4)GlcNAc(b1-4)GlcNAc
# Procedure, shortened: as §1
# [11] = biological target: Gal(b1-4)GlcNAc(b1-3)Gal(b1-4)GlcNAc(b1-2)[Gal(b1-4)GlcNAc(b1-3)Gal(b1-4)GlcNAc(b1-6)]Man(a1-6)[Gal(b1-4)GlcNAc(b1-3)Gal(b1-4)GlcNAc(b1-2)Man(a1-3)]Man(b1-4)GlcNAc(b1-4)[Fuc(a1-6)]GlcNAc
# Procedure, shortened: as §1
# [12] = biological target: Gal(b1-4)GlcNAc(b1-3)Gal(b1-4)GlcNAc(b1-3)Gal(b1-4)GlcNAc
# Procedure, shortened: as §1
# [13] = biological target: Gal(b1-4)GlcNAc(b1-3)Gal(b1-4)GlcNAc(b1-3)Gal(b1-4)GlcNAc(b1-2)Man(a1-3)[Gal(b1-4)GlcNAc(b1-3)Gal(b1-4)GlcNAc(b1-3)Gal(b1-4)GlcNAc(b1-2)Man(a1-6)]Man(b1-4)GlcNAc(b1-4)GlcNAc
# Procedure, shortened: as §1
# [14] = biological target: Gal(b1-4)GlcNAc(b1-3)Gal(b1-4)GlcNAc(b1-3)Gal(b1-4)GlcNAc(b1-2)Man(a1-3)[Gal(b1-4)GlcNAc(b1-3)Gal(b1-4)GlcNAc(b1-3)Gal(b1-4)GlcNAc(b1-2)Man(a1-6)]Man(b1-4)GlcNAc(b1-4)[Fuc(a1-6)]GlcNAc
# Procedure, shortened: as §1
# [15] = biological target: Gal(b1-4)GlcNAc(b1-3)Gal(b1-4)GlcNAc(b1-3)Gal(b1-4)GlcNAc(b1-2)[Gal(b1-4)GlcNAc(b1-3)Gal(b1-4)GlcNAc(b1-3)Gal(b1-4)GlcNAc(b1-6)]Man(a1-6)[Gal(b1-4)GlcNAc(b1-3)Gal(b1-4)GlcNAc(b1-3)Gal(b1-4)GlcNAc(b1-2)Man(a1-3)]Man(b1-4)GlcNAc(b1-4)[Fuc(a1-6)]GlcNAc
# Procedure, shortened: as §1
# [16] = biological target: Gal(b1-4)GlcNAc(b1-3)Gal(b1-4)GlcNAc(b1-3)Gal(b1-4)GlcNAc(b1-3)Gal(b1-4)GlcNAc(b1-2)Man(a1-3)[Gal(b1-4)GlcNAc(b1-3)Gal(b1-4)GlcNAc(b1-3)Gal(b1-4)GlcNAc(b1-3)Gal(b1-4)GlcNAc(b1-2)Man(a1-6)]Man(b1-4)GlcNAc(b1-4)GlcNAc
# Procedure, shortened: as §1
# [17] = biological target: Gal(b1-4)GlcNAc(b1-3)Gal(b1-4)GlcNAc(b1-3)Gal(b1-4)GlcNAc(b1-3)Gal(b1-4)GlcNAc(b1-2)Man(a1-3)[Gal(b1-4)GlcNAc(b1-3)Gal(b1-4)GlcNAc(b1-3)Gal(b1-4)GlcNAc(b1-3)Gal(b1-4)GlcNAc(b1-2)Man(a1-6)]Man(b1-4)GlcNAc(b1-4)[Fuc(a1-6)]GlcNAc
# Procedure, shortened: as §1
# [18] = biological target: Gal(b1-4)GlcNAc(b1-3)Gal(b1-4)GlcNAc(b1-3)Gal(b1-4)GlcNAc(b1-3)Gal(b1-4)GlcNAc(b1-2)[Gal(b1-4)GlcNAc(b1-3)Gal(b1-4)GlcNAc(b1-3)Gal(b1-4)GlcNAc(b1-3)Gal(b1-4)GlcNAc(b1-6)]Man(a1-6)[Gal(b1-4)GlcNAc(b1-3)Gal(b1-4)GlcNAc(b1-3)Gal(b1-4)GlcNAc(b1-3)Gal(b1-4)GlcNAc(b1-2)Man(a1-3)]Man(b1-4)GlcNAc(b1-4)[Fuc(a1-6)]GlcNAc
# Procedure, shortened: as §1
# [19] = biological target: Gal(b1-4)GlcNAc(b1-3)Gal(b1-4)GlcNAc(b1-3)Gal(b1-4)GlcNAc(b1-3)Gal(b1-4)GlcNAc(b1-3)Gal(b1-4)GlcNAc(b1-2)Man(a1-3)[Gal(b1-4)GlcNAc(b1-3)Gal(b1-4)GlcNAc(b1-3)Gal(b1-4)GlcNAc(b1-3)Gal(b1-4)GlcNAc(b1-3)Gal(b1-4)GlcNAc(b1-2)Man(a1-6)]Man(b1-4)GlcNAc(b1-4)GlcNAc
# Procedure, shortened: as §1
# [20] = biological target: Gal(b1-4)GlcNAc(b1-3)Gal(b1-4)GlcNAc(b1-3)Gal(b1-4)GlcNAc(b1-3)Gal(b1-4)GlcNAc(b1-3)Gal(b1-4)GlcNAc(b1-2)Man(a1-3)[Gal(b1-4)GlcNAc(b1-3)Gal(b1-4)GlcNAc(b1-3)Gal(b1-4)GlcNAc(b1-3)Gal(b1-4)GlcNAc(b1-3)Gal(b1-4)GlcNAc(b1-2)Man(a1-6)]Man(b1-4)GlcNAc(b1-4)[Fuc(a1-6)]GlcNAc
# Procedure, shortened: as §1
# [21] = biological target: Gal(b1-4)GlcNAc(b1-3)Gal(b1-4)GlcNAc(b1-3)Gal(b1-4)GlcNAc(b1-3)Gal(b1-4)GlcNAc(b1-3)Gal(b1-4)GlcNAc(b1-2)[Gal(b1-4)GlcNAc(b1-3)Gal(b1-4)GlcNAc(b1-3)Gal(b1-4)GlcNAc(b1-3)Gal(b1-4)GlcNAc(b1-3)Gal(b1-4)GlcNAc(b1-6)]Man(a1-6)[Gal(b1-4)GlcNAc(b1-3)Gal(b1-4)GlcNAc(b1-3)Gal(b1-4)GlcNAc(b1-3)Gal(b1-4)GlcNAc(b1-3)Gal(b1-4)GlcNAc(b1-2)Man(a1-3)]Man(b1-4)GlcNAc(b1-4)[Fuc(a1-6)]GlcNAc
# Procedure, shortened: as §1
# [22] = biological target: Gal(b1-4)GlcNAc(b1-3)Gal(b1-4)GlcNAc(b1-3)Gal(b1-4)GlcNAc(b1-3)Gal(b1-4)GlcNAc(b1-3)Gal(b1-4)GlcNAc(b1-3)Gal(b1-4)GlcNAc(b1-2)Man(a1-3)[Gal(b1-4)GlcNAc(b1-3)Gal(b1-4)GlcNAc(b1-3)Gal(b1-4)GlcNAc(b1-3)Gal(b1-4)GlcNAc(b1-3)Gal(b1-4)GlcNAc(b1-3)Gal(b1-4)GlcNAc(b1-2)Man(a1-6)]Man(b1-4)GlcNAc(b1-4)GlcNAc
# Procedure, shortened: as §1
# [23] = biological target: Gal(b1-4)GlcNAc(b1-3)Gal(b1-4)GlcNAc(b1-3)GalNAc
# Procedure, shortened: as §1
binder,measurement,setting,value
Als3-N (Candida albicans) (protein) KTITGVFNSFNSLTWSNAATYNYKGPGTPTWNAVLGWSLDGTSASPGDTFTLNMPCVFKFTTSQTSVDLTAHGVKYATCQFQAGEEFMTFSTLTCTVSNTLTPSIKALGTVTLPLAFNVGGTGSSVDLEDSKCFTAGTNTVTFNDGGKKISINVDFERSNVDPKGYLTDSRVIPSLNKVSTLFVAPQCANGYTSGTMGFANTYGDVQIDCSNIHVGITKGLNDWNYPVSSESFSYTKTCSSNGIFITYKNVPAGYRPFVDAYISATDVNSYTLSYANEYTCAGGYWQRAPFTLRWTGYRNSDAGSNGIVIVATTRTVTDSTTAVTTLPFDPNRDKTKTIEILKPIPTTTITTSYVGVTTSYLTKTAPIGETATVIVDIPYHTTTTVTSKWTGTITSTTTHTNPTDSIDTVIVQVP,glycan array binding signal (z-score),[1],0.418
same,glycan array binding signal (z-score),[2],-0.255
same,glycan array binding signal (z-score),[3],-0.109
same,glycan array binding signal (z-score),[4],-0.308
same,glycan array binding signal (z-score),[5],-0.246
same,glycan array binding signal (z-score),[6],-0.26
same,glycan array binding signal (z-score),[7],-0.193
same,glycan array binding signal (z-score),[8],8.26
same,glycan array binding signal (z-score),[9],0.229
same,glycan array binding signal (z-score),[10],0.906
same,glycan array binding signal (z-score),[11],0.224
same,glycan array binding signal (z-score),[12],-0.356
same,glycan array binding signal (z-score),[13],3.26
same,glycan array binding signal (z-score),[14],-0.02
same,glycan array binding signal (z-score),[15],0.187
same,glycan array binding signal (z-score),[16],0.309
same,glycan array binding signal (z-score),[17],-0.002
same,glycan array binding signal (z-score),[18],0.608
same,glycan array binding signal (z-score),[19],0.396
same,glycan array binding signal (z-score),[20],-0.009
same,glycan array binding signal (z-score),[21],0.198
same,glycan array binding signal (z-score),[22],0.023
same,glycan array binding signal (z-score),[23],0.259
